# PubChem BioAssay (NCI)
# Where a structure was tested more than once in an assay, its records may differ in their call.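 48-hour exposure, single concentration, 96-well plates; percent growth endpoint where 0 means no net growth. Active: below 10.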 Certain results were filed several times, with different values. The list is limited to them. An entry can have further records. This drug was run again and again over the years, at its own concentration, as given; one value stands for one run. Additions like (4×) count equal records among those shown.
# How the values were obtained:
# NCI-H460 lung = assay: NCI-60 one-dose screen, 48 h (100 = growth as untreated, 0 = no growth, -100 = all killed); settings: 2.5 mM
# HOP-92 NSCLC = assay: as above; settings: 2.5 mM
smiles,measurement,setting,value
O=c1[nH]cc(F)c(=O)[nH]1,growth,NCI-H460 lung; runs of 1996,"active: -28.5, -100, -76.5, -46.7, -36.9, -61.9, -87.9, 3.77, -32.2, -43, -63.7, -39.2, -70.1, -27.8, -53.6, -77.2, -65.3, -24.3, -34 (2×), 5.11, -71.7, -74.7, -24.1, -24, -38.3, -9.38, -42.8, -8.41, 1.81, -32.3, -10.3, 2.25, -21.5, -11.6, -42.1, -20.5, 5.26, 0.28, 8.17, -7.04, 0.0869, -27.4, -6.12, 3.06, 5.31, -37.1, -28.4, -25.6, -3.7%"
same,growth,NCI-H460 lung; runs of 1997,"inactive: 16.8, 26.4, 31, 13, 24.6% and active: -33, -68.1, -40.1, -49.1, 1.18, 1.2, -62.1, -61.6 (2×), -63.4, -31.9, -83.3, 0.238, -39.2, -51.7, 2.01, -5.35, -12.3, 2.02, -48.4, -4.71, -75.1, -22.4, -25.4, -40.5, -2.91, 5.67, -17.8, -43.8, -24, 2.31, -62.2, -36.3, -22.3, 5.94, 6.49, 5.95, -22.7%"
same,growth,NCI-H460 lung; runs of 1998,"active: 2.95, -0.417, -5.68, 4.25, 1.36, -11.6, -4.04, -8.99, -47.3, -30.9, 7.59, 0.508, -26, 7.54, 2.65, -35.7, -54.4, -18.6, -8.87, -9.07, 1.13% and inactive: 18.7%, 11.6%, 15.5%"
same,growth,NCI-H460 lung; runs of 1999,"inactive: 16.5% and active: -23, -42.7, -77.5, -66.6, 1.06, 1.45, -2.5, 1.3, -8.06, -19.6, -22.9, 1.89, 1.92, -21.9, 2.1, 0.715, 0.857, -13.8, -5.65, 0.37, 1.31, 1.66, 2.59, 4.21, -5.81, -100 (2×), -57, 0.237, -30.2, -48.5, 0.671, 0.455, -1.4, 0.399, -29.9, -37.8, -65.6, -92.4, -77.6%"
same,growth,NCI-H460 lung; runs of 2000,"active: -44.5, -36.6, 0.967, -53.3%"
same,growth,HOP-92 NSCLC; runs of 1991,"inactive: 17.5, 38.5, 36.5, 49.2, 33.6, 45.3, 46.4, 68.1, 47.5, 59.2, 47.2% and active: -6.34%, -4.02%, 1.95%"
same,growth,HOP-92 NSCLC; runs of 1992,"inactive: 38.6, 36 (2×), 61.5, 54.8, 41.1 (2×), 33.6, 85.9, 25.8, 12.4, 60.2, 36.1 (2×), 59.5, 20.5, 49.3, 47.9, 54.2, 83.3, 48.3 (2×), 28.2, 23.7, 41.5, 48.7, 28.6, 39.6, 52.2, 34.8, 52.5, 32.7, 66.8, 48 (2×), 34.4 (2×), 29.2, 40.3, 34.5, 10.5, 10.8, 39.9, 21.3, 52.6 (2×), 69.4, 49.7, 22.5, 61, 26.2, 12.2, 25.7, 35.8 (2×), 20.2, 51.9, 43.5, 37.6, 46.9, 39.5, 49.5, 32.4, 45.4, 50.8, 52.9, 44.2, 41.7, 54.9, 38.1, 87.6, 50.1, 12.5, 34, 35.9, 43.4, 20.8, 27.5, 56.1, 61.8, 29.6, 65.4, 18.5, 47.8, 44.5, 50.6, 42.9, 61.2% and active: -11.7, -5.19, 6.21, -2.27, -8.32, -4.1, -4.94, -9.82, -13.1, 1.5, -9.74, -4.76, 8.58%"
same,growth,HOP-92 NSCLC; runs of 1993,"active: 9.06, -5.8, 2.75, -8.91% and inactive: 29.8, 41.5, 39.3, 48.9, 27.1, 41.1, 44.5, 39.5, 20.6, 70, 40.4, 52.3, 47.1, 50.1, 54, 63.8, 31.9, 43.4, 49, 34.3, 44.2, 40.3, 63.4, 21.7, 57.4, 63.5, 22.6, 27.9, 46.3, 61.6, 60.3, 80%"
same,growth,HOP-92 NSCLC; runs of 1994,"inactive: 16.1, 23.1, 72.7, 45.6, 29.8, 71.3, 24.2, 31.1, 43.8, 33.6, 33.2, 50.4, 11.8, 61.6, 34.8, 45.2, 49.8, 21.4, 67.9, 61.3, 59.1, 29.7, 33.7, 31.7, 34.6, 17.1% and active: -14.7, 6.88, -10.6, -10.3%"
same,growth,HOP-92 NSCLC; runs of 1995,"inactive: 49.1, 14.4, 12.4, 34, 24.1, 54.6, 24.3, 45.4, 16, 32.4, 29.9, 22.1, 13.2 (2×), 26, 30.1, 45.8, 35.1, 80.2, 27.4, 37.6, 12.3, 42.4, 46.8, 28.7% and active: 9.73, -1.66, -1.06, -14.9, -0.395, -1.85, -4.63, 2.46, -45.6%"
same,growth,HOP-92 NSCLC; runs of 1996,"inactive: 73, 39.9, 24.1, 16.5, 38.1, 40.7, 53.4, 56.1, 56.2, 69.6, 20.9, 63.7, 47.5, 14.9, 48.2, 51.9, 32.6 (2×), 54.7, 79, 59.9, 44, 89.3, 60.2, 58.8, 86.6, 39.2, 51.6, 20.1, 44.5, 25.3, 32.8, 67, 76.7, 57.8, 40.9% and active: -0.917, -10.6, 8.46, -3.11, 9.92, -15.8%"
same,growth,HOP-92 NSCLC; runs of 1997,"inactive: 48.1, 103, 14.6 (2×), 31.2, 44.6, 16.4, 30.8 (2×), 30.4, 40.6 (2×), 52.6, 21.3, 34.2, 112, 46.9, 34.6, 49.3, 34.4, 48.6, 32.6, 47.7, 34.3, 50.2, 32.7, 74.2, 45.9, 33.2, 55.1, 27.2% and active: -0.261, -19.6, 8.15, 6.73, -7.77, -8.12, -2.99%"
same,growth,HOP-92 NSCLC; runs of 1998,"inactive: 113, 33.8, 43, 87.5, 59.4, 46.5, 49.1, 73.3, 14, 32.7, 44.7, 56, 54.9, 45.6, 55.2, 68.8, 46.9, 42.5, 31.5, 44.1, 56.9, 78% and active: -8.12%, -6.41%"
same,growth,HOP-92 NSCLC; runs of 1999,"active: -8.47, -20.8, -0.12, -35.4, -24.1, 5.4, -48.6, -11.6, -47.2, -50.9% and inactive: 77.7, 19.9, 59.5, 20, 11.2, 11.8, 10.4%"
same,growth,HOP-92 NSCLC; runs of 2000,"active: 0.497, 5.45, -3.14, -27.9%"
